# Among all 52,000 compounds or so, about 4,300 (8.3%) were called active. Cut-off read from the data, not from the text of the source: active = survival mostly below about 52% (no sharp cut-off); inactive = mostly above about 56%. This is one part of the list.
# System: DeltatarO mutant
# Experiment: growth inhibition of S. aureus wild type versus tarO mutant, primary screen, teichoic acid synthesis inhibitors, RN4220, OD600 (AID 463173)
# Settings: OD600, 18 h, active compounds read low, screened at 18.75 µg/mL (by protocol)
row,SMILES,survival
1,O=C(CCCCn1c(=O)c2ccccc2n(Cc2cccc(F)c2)c1=O)NCc1ccc2c(c1)OCO2,inactive: 92%
2,O=C(O)c1ccc2nc(-c3cc4cc(Cl)ccc4oc3=O)[nH]c2c1,inactive: 69%
3,Cc1ccc(C(=O)c2oc3ccccc3c2NC(=O)Cc2coc3ccc(C)cc23)cc1,inactive: 63%
4,CN1/C(=C\C(=O)Nc2cccnc2)c2ccccc2CC1(C)C,inactive: 65%
5,Cc1ccc(-c2nc3c4ccccc4n(CC(=O)NCc4ccc(F)cc4)c(=O)n3n2)cc1,inactive: 124%
6,O=c1c2ccccc2n(Cc2c(F)cccc2Cl)c(=O)n1CCc1ccccc1,inactive: 85%
7,Cc1cc2c(cc3c(SCc4ccc(Cl)cc4)nncn32)o1,inactive: 72%
8,COc1ccc(C)cc1NC(=O)c1cnc2ccc(C)cn2c1=O,inactive: 90%
9,OCCNc1ccc(Cl)cc1,inactive: 75%
10,COCCNC(=O)CCCn1c(SCC(=O)c2ccc(Br)cc2)nc2c(sc3ccccc32)c1=O,inactive: 68%
11,Cc1ccn2c(=O)cc(COc3ccc(NC(=O)COc4ccc(C)c(C)c4)cc3)nc2c1,inactive: 101%
12,Cc1ccc(OCC(=O)NCC(c2ccc(Cl)cc2)N2CCOCC2)cc1C (stereo not drawn),inactive: 65%
13,CCOc1cc(C2c3c(oc4ccccc4c3=O)C(=O)N2Cc2ccc(OC)cc2)ccc1O (stereo not drawn),inactive: 145%
14,COc1cccc(C(=O)Nc2cccc(-c3nc4ncccn4c3C)c2)c1,inactive: 118%
15,O=C(O)c1c(-c2ccccc2)oc2ccc(OCc3c(F)cccc3Cl)cc12,active: 29%
16,Cn1c(=O)c2c(-c3ccc(Br)cc3)n(Cc3ccc(F)cc3)cc2n(C)c1=O,active: 49%
17,COc1ccc(-c2nc3cc(C)ccn3c2NC(=O)c2cccc(F)c2)cc1,active: 53%
18,Cc1csc(NC(=O)c2cccnc2)n1,inactive: 72%
19,CCc1nn(CC(=O)NCCCN(CC)CC)c(=O)c2cc3occc3n12,inactive: 122%
20,Cn1c(SCC(=O)Nc2nc3ccccc3s2)ncc(C(=O)Nc2ccccc2)c1=O,inactive: 73%

row,SMILES,survival
1,O=C1COc2cc(S(=O)(=O)CCC(=O)NC3CCCCC3)c(Cl)cc2N1,inactive: 93%
2,COc1ccc(C)cc1-n1cnc2cc(C(=O)NC3CCCCCC3)ccc21,inactive: 94%
3,Cc1ccc2onc(CNC(=O)NCc3ccc(Cl)cc3)c2c1,inactive: 77%
4,O=C(O)C(NS(=O)(=O)c1ccccc1)C(O)c1ccccc1 (stereo not drawn),inactive: 102%
5,CCSc1ncc(Cl)c(C(=O)Nc2c(C(=O)Nc3ccccc3)oc3ccccc23)n1,inactive: 104%
6,CCOc1ccc(CCNC(=O)CCCc2nnc3n(CC)c(=O)c4sccc4n23)cc1,inactive: 80%
7,O=C(CSc1nccn1-c1cccc(Cl)c1)Nc1cccc2ccccc12,inactive: 74%
8,CCCC(=O)N1CCc2cc(OC)c(OC)cc2C1COc1ccc(C(=O)OC)cc1 (stereo not drawn),inactive: 83%
9,C=CCn1c(N)nc2c1c(=O)n(C)c(=O)n2C,inactive: 95%
10,CCN(CC)C(=O)Cn1c(=O)n(CC2CCC(C(=O)NC)CC2)c(=O)c2sccc21 (stereo not drawn),inactive: 112%
11,COc1ccc(CCNC(=O)C2CCN(Cc3nc(-c4ccc(OC)c(OC)c4)oc3C)CC2)cc1OC,inactive: 92%
12,Cc1ccc(/C=C(\C#N)C(=O)Nc2cccc(Cl)c2)o1,inactive: 74%
13,N#Cc1c(/N=C/c2ccc3c(c2)OCO3)oc(-c2ccccc2)c1-c1ccccc1,inactive: 97%
14,O=C(NCCn1cc(SCc2ccc(Br)cc2)c2ccccc21)c1cccs1,inactive: 110%
15,O=C(Nc1ccccc1)c1cc2n(n1)C(C(F)(F)F)CC(c1ccco1)N2 (stereo not drawn),inactive: 99%
16,COC(=O)c1sc(-c2ccccc2)cc1NC(=O)Nc1ccc(F)cc1,active: 21%
17,COc1ccc(C(CC(=O)NCc2ccc(Cl)cc2)N2Cc3ccccc3C2=O)cc1OC (stereo not drawn),inactive: 89%
18,COc1ccc2[nH]c(=O)c(CN(CCO)S(=O)(=O)c3ccc(Cl)c(C(F)(F)F)c3)cc2c1,inactive: 98%
19,Cc1ccc(OCC(=O)Nc2ccc(S(=O)(=O)Nc3cc(C)on3)cc2)c(Br)c1,inactive: 56%
20,CCNC(=S)Nc1cc(-c2ccc(Cl)cc2)[nH]n1,active: 20%

row,SMILES,survival
1,Cc1cc(C)cc(NC(=O)C2CCCN2S(=O)(=O)c2ccc3nc(-c4ccccc4)[nH]c3c2)c1 (stereo not drawn),active: 38%
2,O=C(CSc1nc(-c2ccccc2F)nc2cc(=O)[nH]n12)Nc1cccc(C(F)(F)F)c1,inactive: 69%
3,CCOc1ccccc1-c1nc(Cn2c(=O)cc(C)c3c(C)nn(-c4ccccc4)c32)c(C)o1,inactive: 87%
4,Cc1cc(C)cc(OCCCn2c(-c3ccc(Cl)cc3)nc3ccccc3c2=O)c1,inactive: 58%
5,COc1ccc(Cn2c(CCC(=O)Nc3ccc(C)cc3C)nc3cccnc32)cc1,inactive: 71%
6,Cc1oc2ccc(O)c(CN3CCN(C)CC3)c2c1C(=O)Nc1ccccc1,inactive: 88%
7,CC(C)OCCCNC(=O)c1ccc(Cn2c(=O)c3cccn3c3cccnc32)cc1,inactive: 116%
8,COc1cccc(CNC(=O)c2cccc(-n3c(C)nc4cccnc43)c2C)c1,inactive: 94%
9,Cc1cccc(CSc2nc(=O)c3c(n2C)NC(=O)CC3c2cc(F)cc(F)c2)c1 (stereo not drawn),inactive: 43%
10,Cc1oc2ncn(C)c(=O)c2c1C(=O)Nc1ccc(F)cc1,inactive: 72%
11,CCc1nn(CC(=O)NCCc2ccc(Cl)cc2)c(=O)c2cc3ccccc3n12,inactive: 85%
12,Cc1cc(N2CCN(c3ccc(F)cc3)CC2)n2nc(-c3ccc(Cl)cc3)nc2n1,inactive: 49%
13,CCOC(=O)c1[nH]c(C)c(CCC(=O)Nc2ccccc2C(=O)OC)c1C,inactive: 77%
14,CCOc1ccc2nc(N(Cc3cccnc3)C(=O)C3CCCCC3)sc2c1,inactive: 94%
15,O=c1[nH]c(Nc2nc3ccccc3o2)nc2ccccc12,inactive: 95%
16,Cc1ccc(C2CCN(C(=O)Nc3ccc(Cl)c(Cl)c3)C2)cc1 (stereo not drawn),active: 20%
17,Cc1ccc(-c2nnc(Nc3ccccc3)c3ccccc23)cc1S(=O)(=O)N1CCOCC1,inactive: 59%
18,Cc1ccc(CNC(=O)c2ccc3c(c2)N(Cc2ccccc2Cl)C(=O)CS3)cc1,inactive: 50%

# From PubChem BioAssay AID463173 (ICCB-Longwood Screening Facility, Harvard Medical School, 2010)
